In the antibiotic and cytotoxicity screens of Wong et al. (2023):
The list shows a part of the results.

These molecules were tested on HepG2 (assay: cytotoxicity call (relative viability < 0.9)). Conditions: 10 µM.

| Compound | cytotoxicity call |
| --- | --- |
| C[C@@H]1CCCCO[C@@H](CN(C)S(=O)(=O)c2cccs2)[C@@H](C)CN([C@H](C)CO)C(=O)c2cc(NS(=O)(=O)c3ccc(Cl)cc3)ccc2O1 | inactive |
| C[C@@H]1CN([C@@H](C)CO)C(=O)Cc2cc(NS(=O)(=O)c3ccccc3)ccc2O[C@@H]1CN(C)Cc1ccc(C(=O)O)cc1 | inactive |
| CNC(=O)c1ccc(OC(C)=O)cc1 | inactive |
| COCC(=O)Nc1ccc2c(c1)C(=O)N(C)C[C@@H](OC)[C@H](C)CN(Cc1ccccc1C(=O)O)[C@H](C)CO2 | inactive |
| C[C@@H]1CCCCO[C@@H](CN(C)CC2CCCCC2)[C@@H](C)CN([C@@H](C)CO)C(=O)c2cc(NC(=O)Nc3cccc4ccccc34)ccc2O1 | active |
| CC(C)[C@@H](CC[C@@H](C)[C@H]1CC[C@H]2[C@@H]3[C@H](O)C[C@H]4C[C@@H](NCCCNCCCCNCCCN)CC[C@]4(C)[C@H]3CC[C@]12C)OS(=O)(=O)O | active |
| COc1ccc(S(=O)(=O)N(C)C[C@H]2Oc3c(NS(C)(=O)=O)cccc3C(=O)N([C@H](C)CO)C[C@H]2C)cc1 | inactive |
| O=C(C[C@@H]1CC[C@H]2[C@@H](COC[C@@H](O)CN2S(=O)(=O)c2ccc(Oc3ccccc3)cc2)O1)NC1CCC1 | inactive |

The molecules below were run on S. aureus RN4220 (assay: growth inhibition call (relative growth <= 0.2)). Conditions: 50 µM.

| Compound | growth inhibition call |
| --- | --- |
| C[C@@H]1CN([C@H](C)CO)C(=O)Cc2cc(NC(=O)CCCCCC(=O)Nc3ccccc3N)ccc2O[C@H]1CN(C)Cc1ccc(Cl)c(Cl)c1 | inactive |
| CC12CC(OC1=O)C1(C)CCC3(C)C(=CCC4C5(C)CCC(O)C(C)(C)C5CCC43C)C1C2 (stereo not drawn) | inactive |
| CCS(=O)(=O)Nc1ccc2c(c1)C(=O)N(C)[C@H]1CC[C@H](CC(=O)NCCOC)O[C@@H]1CO2 | inactive |
| CCCNC(=O)N(C)C[C@H]1Oc2cc(-c3ccc(C)cc3)ccc2S(=O)(=O)N([C@@H](C)CO)C[C@H]1C | inactive |
| O=S(=O)(NCC[C@H]1CC[C@H](NS(=O)(=O)c2ccccc2Cl)[C@@H](CO)O1)c1ccc(Cl)cc1 | inactive |
| CN1CCN(C(=O)C[C@@H]2CC[C@H]3[C@@H](COC[C@H](O)CN3S(=O)(=O)c3cccc(Cl)c3)O2)CC1 | inactive |
| C[C@@H]1CCCCO[C@H](CN(C)C(=O)Cc2ccccc2)[C@@H](C)CN([C@H](C)CO)C(=O)c2cc(NC(=O)Nc3ccc(F)cc3)ccc2O1 | inactive |
| C[C@@H]1CN([C@H](C)CO)C(=O)c2cccc(NC(=O)c3ccc(-c4nccs4)cc3)c2O[C@H]1CN(C)CC1CCCCC1 | inactive |
| C[C@@H]1CN([C@@H](C)CO)C(=O)Cc2cc(NC(=O)Nc3ccc(C(F)(F)F)cc3)ccc2O[C@@H]1CN(C)Cc1ccc(C(=O)O)cc1 | inactive |
| CCNC(=O)C[C@H]1C=C[C@H](NC(=O)C2CC2)[C@H](CO)O1 | inactive |
| COc1ccc(C#Cc2ccc3c(c2)[C@H]2[C@H](CCN2C(=O)Nc2ccc(C(F)(F)F)cc2)[C@@H](CO)N3C)cc1 | inactive |
| Cc1noc(C)c1S(=O)(=O)Nc1ccc2c(c1)C(=O)N([C@H](C)CO)C[C@@H](C)[C@@H](CN(C)Cc1ccc(-c3ccccc3)cc1)O2 | inactive |
| O=C1O[C@H](c2ccccc2)[C@H](c2ccccc2)N2[C@H]1[C@@H](C(=O)O)[C@]1(C(=O)Nc3ccc(C#CC4(O)CCCCCC4)cc31)[C@H]2c1ccc(OCCO)cc1 | inactive |
| C[C@@H]1CN([C@H](C)CO)C(=O)c2c(c3ccccc3n2C)-c2ccccc2CO[C@H]1CN(C)C(=O)c1ccc(F)cc1 | inactive |
| Cc1cc(C(=O)Nc2cccc3c2O[C@@H](CN(C)S(=O)(=O)c2ccc(Cl)cc2)[C@H](C)CN([C@H](C)CO)C3=O)n(C)n1 | inactive |
| Cc1cc(C(=O)Nc2cccc3c2O[C@H](CN(C)C(=O)Nc2ccc4c(c2)OCO4)[C@H](C)CN([C@@H](C)CO)C3=O)n(C)n1 | inactive |
| Cc1ccc(S[C@]2(C(=O)NCc3ccccc3)CC(=O)N(Cc3ccccc3Cl)[C@@H]2c2ccc(CO)cc2I)cc1 | inactive |
| C/C=C/c1ccc([C@H]2[C@@H](CO)N(S(=O)(=O)CC)C23CN(C(=O)CN(C)C)C3)cc1 | inactive |
| CC(C)NC(=O)N(C)C[C@@H]1Oc2ncc(-c3ccc(C(=O)N(C)C)cc3)cc2C(=O)N([C@@H](C)CO)C[C@@H]1C | inactive |
| C[C@H]1CN([C@@H](C)CO)C(=O)Cc2cc(NS(=O)(=O)c3ccccc3)ccc2O[C@H]1CN(C)S(=O)(=O)c1ccc(F)cc1 | inactive |

| Compound | growth inhibition call |
| --- | --- |
| COCC(=O)c1ccnn1C | inactive |
| Cc1ccc(S(=O)(=O)N(C)C[C@H]2OCCCC[C@@H](C)Oc3ccc(NC(=O)NC4CCCCC4)cc3C(=O)N([C@H](C)CO)C[C@@H]2C)cc1 | inactive |
| COc1ccc(S(=O)(=O)Nc2ccc3c(c2)CC(=O)N([C@H](C)CO)C[C@H](C)[C@H](CN(C)Cc2ccc(-c4ccccc4)cc2)O3)cc1 | inactive |
| COc1ccc(S(=O)(=O)N[C@@H]2CC[C@@H](CCNC(=O)CN3CCOCC3)O[C@@H]2CO)cc1 | inactive |
| C[C@H](CO)N1C[C@H](C)[C@H](CN(C)CC2CCCCC2)Oc2ccc(NC(=O)Cn3cnnn3)cc2C1=O | inactive |
| C[C@H](CO)N1C[C@H](C)[C@@H](CN(C)Cc2ccncc2)Oc2c(NS(=O)(=O)c3ccccc3)cccc2C1=O | inactive |
| C[C@@H]1CCCCO[C@@H](CN(C)S(=O)(=O)c2ccc(Cl)cc2)[C@@H](C)CN([C@H](C)CO)C(=O)c2cc(NC(=O)c3ccncc3)ccc2O1 | inactive |
| C[C@@H]1CN([C@H](C)CO)C(=O)Cc2cc(NC(=O)CCC(F)(F)F)ccc2O[C@@H]1CN(C)Cc1ccc(C(F)(F)F)cc1 | inactive |
| CC(C)(C)[S@@](=O)N1Cc2cc(C(=O)N3CCCCC3)nc(-c3cccc(-c4ccc(F)cc4)c3)c2[C@H]1CCO | inactive |
| C=CCC[C@@H](Cc1ccc(F)cc1)C(=O)OC[C@@H]1CCCN1C(=O)[C@@H](CC=C)CC(=O)N(CCO)Cc1ccccc1 | inactive |
| Cc1ccc(S(=O)(=O)Nc2ccc3c(c2)C(=O)N([C@H](C)CO)C[C@@H](C)[C@H](CN(C)S(=O)(=O)c2ccc(F)cc2)OCCCC[C@@H](C)O3)cc1 | inactive |
| C[C@@H]1CCCCO[C@H](CN(C)C(=O)c2ccccc2)[C@@H](C)CN([C@@H](C)CO)C(=O)c2cc(NC(=O)Nc3cccc4ccccc34)ccc2O1 | inactive |
| C[C@@H]1CCCCO[C@@H](CN(C)S(=O)(=O)c2cccs2)[C@@H](C)CN([C@H](C)CO)C(=O)c2cc(NS(=O)(=O)c3ccc(Cl)cc3)ccc2O1 | inactive |
| C[C@@H]1CN([C@@H](C)CO)C(=O)Cc2cc(NS(=O)(=O)c3ccccc3)ccc2O[C@@H]1CN(C)Cc1ccc(C(=O)O)cc1 | inactive |
| CNC(=O)c1ccc(OC(C)=O)cc1 | inactive |
| COCC(=O)Nc1ccc2c(c1)C(=O)N(C)C[C@@H](OC)[C@H](C)CN(Cc1ccccc1C(=O)O)[C@H](C)CO2 | inactive |
| C[C@@H]1CCCCO[C@@H](CN(C)CC2CCCCC2)[C@@H](C)CN([C@@H](C)CO)C(=O)c2cc(NC(=O)Nc3cccc4ccccc34)ccc2O1 | inactive |
| CC(C)[C@@H](CC[C@@H](C)[C@H]1CC[C@H]2[C@@H]3[C@H](O)C[C@H]4C[C@@H](NCCCNCCCCNCCCN)CC[C@]4(C)[C@H]3CC[C@]12C)OS(=O)(=O)O | inactive |
| COc1ccc(S(=O)(=O)N(C)C[C@H]2Oc3c(NS(C)(=O)=O)cccc3C(=O)N([C@H](C)CO)C[C@H]2C)cc1 | inactive |
| O=C(C[C@@H]1CC[C@H]2[C@@H](COC[C@@H](O)CN2S(=O)(=O)c2ccc(Oc3ccccc3)cc2)O1)NC1CCC1 | inactive |
